The campaign covered roughly 310,000 compounds. About 2,200 (0.71%) showed an effect of 50% or more. The effect is printed as a negative number. The list shows a part of the results.
Molecular target: human ether-à-go-go-related gene (hERG) potassium channel (human, UniProt Q12809)
Test: primary screen, population patch clamp on CHO cells stably expressing hERG

human ether-à-go-go-related gene (hERG) potassium channel, sequence (Q12809 whole entry, looked up): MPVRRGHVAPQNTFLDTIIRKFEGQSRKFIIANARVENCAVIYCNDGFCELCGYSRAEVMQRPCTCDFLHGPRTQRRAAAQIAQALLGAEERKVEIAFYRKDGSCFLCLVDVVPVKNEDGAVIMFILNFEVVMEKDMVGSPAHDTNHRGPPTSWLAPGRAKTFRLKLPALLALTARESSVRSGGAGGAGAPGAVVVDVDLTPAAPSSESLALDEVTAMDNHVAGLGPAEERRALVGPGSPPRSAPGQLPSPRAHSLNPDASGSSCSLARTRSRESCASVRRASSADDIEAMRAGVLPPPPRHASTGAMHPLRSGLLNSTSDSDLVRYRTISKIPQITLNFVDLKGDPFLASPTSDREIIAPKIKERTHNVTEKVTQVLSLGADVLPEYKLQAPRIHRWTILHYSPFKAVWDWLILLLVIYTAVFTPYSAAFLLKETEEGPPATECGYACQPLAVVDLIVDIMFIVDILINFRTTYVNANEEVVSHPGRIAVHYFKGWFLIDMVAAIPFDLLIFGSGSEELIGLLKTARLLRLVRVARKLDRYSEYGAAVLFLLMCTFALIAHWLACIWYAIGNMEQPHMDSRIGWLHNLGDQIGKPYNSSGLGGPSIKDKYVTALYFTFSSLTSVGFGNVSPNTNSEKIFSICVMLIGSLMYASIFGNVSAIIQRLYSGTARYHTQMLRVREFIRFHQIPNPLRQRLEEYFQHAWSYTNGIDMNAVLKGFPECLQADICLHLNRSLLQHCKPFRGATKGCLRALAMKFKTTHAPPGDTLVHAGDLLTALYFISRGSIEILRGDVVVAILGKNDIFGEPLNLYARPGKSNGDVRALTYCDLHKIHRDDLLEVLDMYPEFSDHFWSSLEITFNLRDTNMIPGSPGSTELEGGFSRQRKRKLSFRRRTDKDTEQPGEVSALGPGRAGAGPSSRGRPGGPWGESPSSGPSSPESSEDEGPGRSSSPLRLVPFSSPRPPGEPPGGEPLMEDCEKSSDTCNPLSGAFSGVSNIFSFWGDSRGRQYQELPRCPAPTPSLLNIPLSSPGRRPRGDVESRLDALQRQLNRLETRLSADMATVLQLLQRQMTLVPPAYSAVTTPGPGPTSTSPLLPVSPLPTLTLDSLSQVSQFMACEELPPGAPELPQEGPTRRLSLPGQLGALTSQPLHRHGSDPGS

Structure (SMILES)	hERG current change (%, negative = inhibition) at 1uM [%]
COCCNc1nc(-c2cc(-c3ccccc3)on2)cc(C(C)C)n1	8.84
COc1cccc(-c2cc(=O)c3cc(NC(C)=O)ccc3[nH]2)c1	10.7
CCOC(=O)N1CCN(C(=O)c2ccc3c(c2)NC(=O)C(N2CCOCC2)S3)CC1 (stereo not shown)	14.4
COC(=O)c1ccc(Nc2nc(C)cc(C)n2)cc1	11.3
O=C(c1cncc(Br)c1)N1CCN(S(=O)(=O)c2ccccc2C(F)(F)F)CC1	10.4
O=C(NCc1ccccc1)Nc1cccn(Cc2ccc(F)cc2)c1=O	8.43
CCC1c2ccc(C)n2CCN1C(=O)Nc1ccccc1C(=O)OC (stereo not shown)	7.36
CN1CC(=O)N(CC(=O)Nc2ccc(F)cc2)c2ccccc2C1=O	14.6
CCCCn1c(=O)c(CCC(=O)OCC(=O)NC(=O)NCCOC)nc2ccccc21	2.11
COc1ccccc1-c1c(C(F)(F)F)oc2cc(OC(=O)c3ccccc3[N+](=O)[O-])ccc2c1=O	12.9
COc1ccc(-c2cc(C(F)F)n3ncc(C(=O)N4CCCc5ccccc54)c3n2)cc1	15.6
Cc1ccc(S(=O)(=O)NCC(=O)N(CC(=O)NC(C)(C)C)Cc2ccc3c(c2)OCO3)cc1	13
O=C(Nc1ccc(N2CCOCC2)cc1)c1ccc(-c2ccccc2[N+](=O)[O-])o1	7.69
Nc1c(C(=O)O)sc2nc(-c3ccc(F)cc3)cc(-c3ccccc3)c12	9.31
O=C(COc1ccccc1)N=C1SC2CS(=O)(=O)CC2N1CCc1ccccc1 (stereo not shown)	3.44
COc1ccccc1NC(=O)Cn1nc(-c2ccncc2)nc1SCC(=O)NC1CCCC1	-6.71
Cc1ccc(S(=O)(=O)Cn2nnnc2C(C(C)C)N2CCN(Cc3ccco3)CC2)cc1 (stereo not shown)	14.2
CCOC(=O)c1sc(SC)c2c1CCC/C2=N/OC	10.3
O=C1c2cccc3cccc(c23)C(=O)N1CCCSc1ncn[nH]1	13.7
O=S(=O)(NCCCO)c1ccc2c(c1)Cc1cc(S(=O)(=O)NCCCO)ccc1-2	14.4
O=C(CNC(=S)NC(=O)c1cccs1)c1ccccc1	-1.43
CCCCCCCCO	13.8

Structure (SMILES)	hERG current change (%, negative = inhibition) at 1uM [%]
COc1cc(C2NC(=O)NC(C)=C2C(=O)NCc2ccccc2)c(Cl)cc1O (stereo not shown)	13.7
COc1ccc(-c2nnc(SCC(=O)N3CCCC3)o2)cc1	8.1
Cc1ccc(S(=O)(=O)N2CCOC2CNC(=O)C(=O)NCCCN2CCOCC2)cc1 (stereo not shown)	13
Fc1ccc(N2CCN(Cc3cnc(N4CCOCC4)s3)CC2)cc1	-2.04
O=C(CCNC(=O)c1ccc(Cl)cc1)Nc1cccc(S(=O)(=O)N2CCCCCC2)c1	-11.9
CC1CCCN(C(=O)C2CCN(S(=O)(=O)c3cccc4cccnc34)CC2)C1 (stereo not shown)	0.528
N#Cc1cc([N+](=O)[O-])ccc1Oc1cccc(/C=N/NC(=O)c2cccc(Cl)c2)c1	17.9
CCOC(=O)CN1c2ccccc2NC(=O)CC1C (stereo not shown)	0.853
c1cc(-c2nn[nH]n2)ccc1CN1CCCCC1	12.8
O=S(=O)(Nc1nc2ccccc2nc1NCc1ccco1)c1ccc(Cl)cc1	8.47
CCn1c(SC)nnc1-c1nn(-c2ccccc2)ccc1=O	15.5
CN(C)c1ccc(C(c2nnnn2C(C)(C)C)N2CCN(C(=O)c3ccco3)CC2)cc1 (stereo not shown)	3.93
Cc1ccc(OCC(=O)Nc2ccc3c(c2)C(=O)NC3=O)c(C)c1	7.92
O=c1c2ccccc2[nH]c(=S)n1Cc1ccccc1	13.9
Cc1ccc(NC(=S)N(Cc2ccco2)C(C)c2cccs2)c(Cl)c1 (stereo not shown)	8.42
Cc1ccc(N(CC(=O)NC2CCCC2)C(=O)c2ccc(C)s2)cc1	6.67
O=C(Nc1nc2ccccc2s1)c1ccccc1	18.3
CCOC(=O)C1CCN(C(=O)CCc2ccc(S(=O)(=O)NC(C)C)cc2)CC1	15.4
COc1ccc2nc(NC(=O)CSc3nnc(-c4ccoc4C)n3C)sc2c1	8.42
Cc1ccc2c(C)c(C(=O)Nc3c(C)n(C)n(-c4ccccc4)c3=O)oc2c1	13.3
CC1CCN(C(=O)c2ccc(-c3ccccc3Cl)o2)CC1	6.31
CCOc1ccc(S(=O)(=O)NCCC(=O)OCC(=O)N2CC(=O)Nc3ccccc32)cc1	10.8

Structure (SMILES)	hERG current change (%, negative = inhibition) at 1uM [%]
OCCCNc1nc(-c2ccc(Cl)cc2)nc2ccccc12	-3.18
Cc1sc(NC(=S)Nc2ccc(F)cc2)c(C(N)=O)c1C	9.15
CCc1ccccc1NC(=O)C1C(c2ccccc2)C1(Cl)Cl (stereo not shown)	17.5
O=C(O)CSc1nnc(NC(=O)CN2CCOCC2)s1	13.7
CCOc1cc(NC(=S)NCC2CCCO2)c(OCC)cc1NC(=O)c1cccc(C)c1 (stereo not shown)	14.5
Cc1ccc(C(=O)OCC(=O)NCc2cccs2)cc1C	11.3
CC(=O)c1cc(NC(=O)c2ccc([N+](=O)[O-])cc2)c(=O)oc1C	15.6
CC(Oc1ccc(Cl)cc1Cl)c1nc(-c2ccc(NC(=O)c3cccnc3)cc2)no1 (stereo not shown)	4.81
O=C(N/N=C/c1cc2c(cc1Cl)OCO2)c1cc(-c2ccccc2)n[nH]1	15
CCOC(=O)N1CCN(C(=O)COc2ccc(Br)cc2Cl)CC1	-0.976
O=C(NCc1ccc(F)cc1)c1cccc2c1C(=O)c1ccc(Cl)cc1S2(=O)=O	7.11
O=C(Nc1ccc2snnc2c1)N1CCN(c2ccccc2)CC1	-3.46
CN(C(=O)c1ccc(Cl)c(S(=O)(=O)N2CCOCC2)c1)c1ccccc1C(=O)O	8.24
COc1ccc(NS(=O)(=O)c2cc(N)ccc2N2CCCCC2)cc1	7.33
NC(=O)C[C@H]1NC(=O)[C@H](CCC(=O)O)NC(=O)c2cc([N+](=O)[O-])cc(I)c2NCCC[C@@H](C(N)=O)NC1=O	13.9
CCN(CC)c1ccc(N=Cc2c(O)n(-c3ccc(OC)cc3)c(=O)[nH]c2=O)cc1	11.4
CC(=O)N1c2ccc(S(=O)(=O)N3CCCCC3)cc2CC1C(=O)NCc1ccccc1C (stereo not shown)	10.7
COc1ccc(NCc2nc3ccccc3n2CCOc2ccc(C)cc2)cc1	2.52
Cc1csc(Nc2nc(N)c(C(=O)Nc3cc(Cl)ccc3F)o2)n1	6.02
CCn1nc(C)c(C(=O)Nc2cc(Oc3ccc(Cl)cc3)cc([N+](=O)[O-])c2)c1C	-0.037
CC(C)(C)NC(=O)CN1CCC(O)(c2ccccc2)CC1	14.2
C=CCN=c1sc(C(=O)OC)cc(=O)n1CC=C	15.4

Structure (SMILES)	hERG current change (%, negative = inhibition) at 1uM [%]
COC(=O)c1ccccc1NC(=O)CSc1nc2c(c(=O)[nH]1)CCC2	0.75
CCOc1ccc(CC(=O)NCCc2cnc[nH]2)cc1	3.84
CSc1nnc2c(n1)OC(C)N(C(=O)c1ccccc1)c1ccccc1-2 (stereo not shown)	10.8
CCOc1ccc(S(=O)(=O)N2CCC(C(=O)NCc3ccccn3)CC2)cc1C	10.4
COc1ccc(NS(=O)(=O)c2ccc3c(c2)N(C(C)=O)CCO3)cc1	19.5
C=CCn1c2ccccc2c(=O)c2cc(C#CC3(O)CCCCC3)ccc21	16
CC(Sc1nnc(CNC(=O)c2ccco2)n1C)C(=O)Nc1nccs1 (stereo not shown)	12.5
COc1ccc(-n2nnnc2SCC(=O)c2ccc3c(c2)OCCO3)c(OC)c1	-1.11
COc1cc2c(cc1OC)CC(=O)N(C)CC2	6.78
COc1cc(/C=C2\NC(=O)NC2=O)cc(Br)c1OC	12.7
CN(Cc1ccccc1)C(=O)c1[nH]cnc1C(=O)Nc1ccon1	13.4
CC(C)CC(=O)N1CCN(S(C)(=O)=O)CC1	11.4
O=C(CCC1CCCC1)N1CCN(C(=O)c2ccco2)CC1	-1.72
CC(C)CCCC(C)CCOC(=O)CN1CCCC1 (stereo not shown)	10.3
Cc1ccc(NC(=O)C2CCN(C(=O)c3ccc(F)cc3)CC2)nc1	5.43
COc1cccc(Nc2nc(NCCO)nc(N3CCCC3)n2)c1	3.49
COc1cc(NS(=O)(=O)c2ccc3[nH]c(=O)oc3c2)cc(OC)c1	11.6
CN(C)c1ccc(C(=O)OCC(=O)c2cccs2)cc1	9.31
Cn1c(SCC(=O)NC2CCCC2)nc2c(c1=O)SCC2	14.1
COCCCN(C(=O)C1CCC1)c1c(N)n(Cc2ccccc2)c(=O)[nH]c1=O	2.31
O=C(NC1CCCCCC1)c1cc2c(=O)n3ccccc3nc2s1	8.59
Cc1cccc(NC(=O)CN(C)CC(=O)NC(c2ccccc2)c2ccccc2)c1C	3.3

Reference: publication PMC4336329 (PLoS ONE, 2015)
